# Test results reported in PubChem BioAssay AID686978 (National Center for Advancing Translational Sciences (NCATS), 2013).
# The whole screen tested about 420,000 compounds, of which about 64,000 (15%) were called active. This list was built around the results that the source calls inconclusive (neither active nor inactive); the mix of calls is not that of the screen. Calls come from the whole dose curve; as a rule, active = well fitted inhibition curve with a large enough effect; inconclusive = small, poorly fitted or top-dose-only effect; inactive = flat fitted curve, though single readings scatter. Potencies of inconclusive entries are left out as doubtful fits.
# Experiment: qHTS for Inhibitors of human tyrosyl-DNA phosphodiesterase 1 (TDP1): qHTS in cells in absence of CPT; note: nearly all actives have a fitted effect of over 55% in size
# Settings: DT40 Tdp1-/- hTDP1 cells, no CPT, ATP luminescence, 48 h; activity change, negative = growth inhibition: at 46.2 µM (top of the series) unless noted
# Outline: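 Growth of hTDP1-complemented DT40 Tdp1-knockout cells is measured by ATP luminescence after at least 48 hr compound exposure at 37 °C, with DMSO substituting for the 20 nM CPT used in the parallel screen.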
# % is set by controls: 0 for no effect and ±100 for the full control effect; potency is the fitted concentration of half-maximal effect; tags give direction and shape of the fitted curve.
SMILES,Potency,"activity change, negative = growth inhibition"
CCc1ccc(NC(=O)CC2C(=O)N(c3cccc(OC)c3)C(=O)N2Cc2ccc(F)cc2)cc1 (centres undefined),active: 18.4 µM,
CC(C)(C)NC(=O)Cn1c(=O)n(CC(=O)NC(C)(C)C)c2ccccc21,"inconclusive [inhibitor, single point]",
COc1ccc(CN2CCN(C3CCC3)CC2CCO)c(C)c1C (centres undefined),,inactive: -27.7%
Cc1nc2ccn(Cc3ccccc3)c(=O)c2cc1C(=O)N1CCN(c2ccc(F)cc2)CC1,"inconclusive [inhibitor, single point]",
c1ccc2sc(Sc3ncnc4sccc34)nc2c1,active: 2.91 µM,
COc1ccccc1NC(=O)Cn1c(SCC(=O)Nc2ccc(F)cc2)nc2ccccc21,"inconclusive [inhibitor, single point]",
Cc1cc(C)cc(C(=O)N2CCN(c3ccccn3)CC2)c1,,inactive: -4.43%
N#Cc1ccccc1Sc1ccccc1C(=O)NCC(c1ccco1)N1CCCCC1 (centres undefined),"inconclusive [inhibitor, single point]",
Cc1ccc(NC(=O)Cc2ncc(C(F)(F)F)cc2Cl)cc1Cl,"inconclusive [inhibitor, single point]",
NCCS(=O)(=O)O,,inconclusive: -31.4% [inhibitor]
Cc1c(NC(=O)c2cnn3c(C(F)(F)F)cc(-c4ccco4)nc23)c(=O)n(-c2ccccc2)n1C,"inconclusive [inhibitor, partial curve]",
CCc1ccc(NC(=O)CC2C(=O)N(c3cccc(C)c3)C(=O)N2Cc2ccc(F)cc2)cc1 (centres undefined),,inactive: -98.3%
CCOC(=O)N1CCN(C(=O)COC(=O)c2ccccc2NCCO)CC1,,inactive: 10.1%
O=S(=O)(c1ccc(SCCOc2ccccc2)nc1)N1CCCC1,"inconclusive [inhibitor, single point]",
Cc1nnc(NC(=O)CSc2nc3ccccc3o2)s1,"inconclusive [inhibitor, full curve]",
COCCc1nn2c(=O)cc(COC(=O)C(c3ccccc3)c3ccccc3)nc2s1,"inconclusive [inhibitor, single point]",
CC(=O)n1cc([C@H]2C=C(C(=O)N3CCN(Cc4ccc5c(c4)OCO5)CC3)O[C@@H](OCCCCO)C2)c2ccccc21,"inconclusive [inhibitor, single point]",
COc1ccc(S(=O)(=O)Nc2cc3c4c(c2)CC(=O)N4CCC3)cc1OC,"inconclusive [inhibitor, partial curve, poor fit]",
COc1ccccc1CNC(=O)c1ccccc1NC(=O)C1=C(C)OCCS1,"inconclusive [inhibitor, partial curve]",
